SMILES strings stand for the structures. Among all 310,000 compounds or so, about 14,000 (4.5%) showed an effect of 50% or more. The effect is printed as a negative number. The list shows a part of the results.
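Note: peak tail current of the secondary pulse compared with the same well before compound.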

human ether-à-go-go-related gene (hERG) potassium channel, sequence (Q12809 whole entry, looked up): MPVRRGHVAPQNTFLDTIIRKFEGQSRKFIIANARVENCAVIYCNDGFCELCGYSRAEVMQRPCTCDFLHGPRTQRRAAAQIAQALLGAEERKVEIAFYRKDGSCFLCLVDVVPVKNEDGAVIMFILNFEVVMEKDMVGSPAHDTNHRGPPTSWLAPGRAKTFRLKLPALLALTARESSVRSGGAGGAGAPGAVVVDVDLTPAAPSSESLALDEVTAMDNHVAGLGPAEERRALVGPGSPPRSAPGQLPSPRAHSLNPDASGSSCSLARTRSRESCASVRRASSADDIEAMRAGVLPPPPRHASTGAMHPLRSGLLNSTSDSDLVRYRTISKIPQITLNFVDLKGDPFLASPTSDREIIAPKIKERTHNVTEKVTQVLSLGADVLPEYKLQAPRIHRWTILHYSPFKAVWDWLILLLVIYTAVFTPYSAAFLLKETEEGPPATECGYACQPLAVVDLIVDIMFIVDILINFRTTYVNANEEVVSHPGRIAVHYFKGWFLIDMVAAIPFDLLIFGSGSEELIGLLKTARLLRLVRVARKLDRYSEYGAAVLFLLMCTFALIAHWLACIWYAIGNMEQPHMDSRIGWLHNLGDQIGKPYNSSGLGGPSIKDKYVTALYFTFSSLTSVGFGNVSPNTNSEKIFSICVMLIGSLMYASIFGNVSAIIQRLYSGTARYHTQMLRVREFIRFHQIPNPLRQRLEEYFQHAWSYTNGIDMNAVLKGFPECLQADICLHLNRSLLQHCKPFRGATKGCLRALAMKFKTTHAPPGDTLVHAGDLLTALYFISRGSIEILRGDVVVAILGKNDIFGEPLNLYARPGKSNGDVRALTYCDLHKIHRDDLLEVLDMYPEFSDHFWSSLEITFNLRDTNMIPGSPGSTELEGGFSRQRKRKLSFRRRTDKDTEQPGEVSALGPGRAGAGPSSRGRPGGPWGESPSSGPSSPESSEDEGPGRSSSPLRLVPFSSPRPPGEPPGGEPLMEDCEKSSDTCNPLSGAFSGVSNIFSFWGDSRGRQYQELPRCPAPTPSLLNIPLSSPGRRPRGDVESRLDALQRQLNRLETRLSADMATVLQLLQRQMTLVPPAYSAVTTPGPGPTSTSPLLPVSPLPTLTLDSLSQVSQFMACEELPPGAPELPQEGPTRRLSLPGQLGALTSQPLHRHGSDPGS

This assay concerns the target human ether-à-go-go-related gene (hERG) potassium channel (human, UniProt Q12809). The assay is described as follows: primary screen, population patch clamp on CHO cells stably expressing hERG.
With `CC(NCCC1(C(C)C)CCOC(C)(C)C1)c1cccs1` (stereo not drawn), the “hERG current change (%, negative = inhibition) at 10uM” value worked out at 15.9%.
Next, `Cc1ccc(C(=O)N2CCN(c3cccc(Cl)c3)CC2)cc1C`: -13.4%; `c1ccc(Nc2ccc(Nc3ccccc3)cc2)cc1`: 17.9%.
Regarding `CC(=O)c1cccc(NC(=O)CN(c2ccccc2F)S(C)(=O)=O)c1`, the “hERG current change (%, negative = inhibition) at 10uM” value is -0.927%.
As for `CC(C)C1(C(C)C)OC(=O)c2ccccc21`, the “hERG current change (%, negative = inhibition) at 10uM” value is given as -20.6%.
The figure for `Nn1c(SCC(=O)NC2CCCCC2)nnc1-c1ccco1` is 4.3%; for `COc1ccc2oc(C(=O)N3CCN(c4ncccn4)CC3)c(C)c2c1` it is -34.7%.
The figure for `COc1ccc(CNC(=O)C(c2ccco2)N(C(=O)c2csnn2)c2cccc(C)c2C)cc1` (stereo not drawn) is -5.13%.
With `O=C(Oc1ccccc1Cl)c1ccccc1P(=O)(O)O`, the “hERG current change (%, negative = inhibition) at 10uM” value is 13.9%.
The figure for `Cc1ccc(CNc2ccc3c(c2)ncn3C)cc1` is -33.8%; for `O=C(CCCn1c(=O)[nH]c2ccccc2c1=O)Nc1ccc(F)cc1` it is -2.74%.
The figure for `O=C(CSc1nc2ccccc2[nH]1)Nc1nc(-c2ccc(Br)cc2)cs1` is 29.2%; for `CCOc1ccc(-n2c(=S)sc3c(=O)n(-c4ccc(F)cc4)c(SCC(=O)O)nc32)cc1` it is -23.7%.
For `COc1ccc(C(=O)Nc2ncc(C)s2)cc1S(=O)(=O)N1CCCC1`, the “hERG current change (%, negative = inhibition) at 10uM” value stood at 17.5%.
`CC[n+]1oc(-c2ccccc2)cc1C.F[B-](F)(F)F`: the “hERG current change (%, negative = inhibition) at 10uM” value was 6.78%.
The figure for `O=C(c1ccccc1)c1ccc2c(c1)OCCOCCOCCOCCO2` is -65%.
Turning to `COc1ccccc1N1CCN(S(=O)(=O)CCNC(=O)CCCc2ccccc2)CC1`, the “hERG current change (%, negative = inhibition) at 10uM” value is given as -17%.
The figure for `COc1ccc(NC(=O)c2cc(-c3ccccn3)nc3ccccc23)cc1S(=O)(=O)N(C)C` is -16.6%; for `Cn1cccc1C(NC(=O)c1ccccc1)C(Cl)(Cl)Cl` (stereo not drawn) it is 13.1%.
Next, `O=C(NC1CCCC1)C(=O)N(Cc1cccnc1)C(C(=O)NCC1CCCO1)c1ccco1` (stereo not drawn): 38.2%.
The figure for `COc1ccc(N2CCN(C(=O)Cn3cncn3)CC2)cc1` is 2.02%; for `CC(=O)Nc1ccc(NC(=O)Cn2c(=O)n(-c3ccc(C)cc3)c(=O)c3oc4ccccc4c32)cc1` it is 6.04%; for `O=C(Oc1ccc2cc(Br)ccc2c1)c1cccnc1` it is 14.4%.
Turning to `COc1ccc(C)cc1NC(=O)CCS(=O)(=O)c1cc2c(cc1Cl)NC(=O)CO2`, the “hERG current change (%, negative = inhibition) at 10uM” value was -14.4%.
The figure for `CCN1CCc2nc(NC(=O)c3cc(F)c(F)cc3Cl)sc2C1` is -34.2%; for `COc1ccc(C(=O)N2CCCC2)cc1S(=O)(=O)N1CCC(C)CC1` it is 5.33%.
Next, `COc1cc(NC(=S)NCCCN2CCOCC2)c(OC)cc1Cl`: -12.2%.
The figure for `Cc1cccc(CS(=O)(=O)c2ncc(Cl)c(C(=O)NCc3ccc4c(c3)OCO4)n2)c1` is 0.86%.
On to `O=C(O)COCC(=O)Nc1ccc(-n2nc(C(F)(F)F)cc2-c2cccs2)cc1`, for which the “hERG current change (%, negative = inhibition) at 10uM” value came out at 20.4%.
The figure for `Cc1cc(-c2ccccc2)nc(N(C)NC(=O)c2c(F)cccc2F)c1S(C)(=O)=O` is -26.1%.
In the case of `Cc1nnsc1S(=O)c1ccc(F)cc1` (stereo not drawn), the “hERG current change (%, negative = inhibition) at 10uM” value is reported as 20.3%.
Next, `O=C(Cc1csc(NC(=O)c2ccccc2)n1)NO`: 8.93%; `COc1ccc(NC(=S)N2CCC(N(C)CC3CCCO3)CC2)cc1` (stereo not drawn): -17.4%.
The figure for `CCOCCCN1C(=O)C2C(C(=O)Nc3ccc(OCC)cc3)C3C=CC2(O3)C1C(=O)NC1CCCCC1` (stereo not drawn) is -72.8%; for `O=c1c(Cc2ccc(Cl)cc2)c(O)ccn1Cc1cccc(Cl)c1` it is 7.27%.
The figure for `CC1CCc2sc(C(=O)NCC(C)(C)N3CCOCC3)cc2C1` (stereo not drawn) is -32.6%; for `O=[N+]([O-])c1cc(C(F)(F)F)ccc1NCCc1ccccn1` it is -40%.
As to `CCOC(=O)c1ccc(NC(=O)CCS(=O)(=O)c2ccc(Br)s2)cc1`, the “hERG current change (%, negative = inhibition) at 10uM” value turned out to be 9.92%.
As to `Cc1ccc(NC(=S)N=Nc2c(O)n(C)c3ccc(S(=O)(=O)N4CCOCC4)cc23)cc1C`, the “hERG current change (%, negative = inhibition) at 10uM” value is listed as 10.9%.
Regarding `CC(C)NC(=S)N1CCN(C(c2ccccc2)c2ccccc2)CC1`, the “hERG current change (%, negative = inhibition) at 10uM” value is reported as -34.7%.
Next, `CSc1ccccc1NC(=O)CN(C)CC(=O)NCC(=O)Nc1ccc(F)cc1`: -17.1%.
Next, `COc1ccccc1N1C(C)=CC(=C(C#N)c2nc3ccccc3s2)C=C1C`: 3.3%.
Next, `COc1ccc(N2C(=O)N[C@@H](Cc3ccccc3)C2=O)cc1OC`: 15.1%; `CC1CCCCN1C(=O)c1c([N+](=O)[O-])cnn1C` (stereo not drawn): 18.7%; `N#C/C(=C(/O)CN1CCOCC1)c1nc2ccccc2s1`: 13.8%.
With `O=C(NCCc1ccc(F)cc1)c1cc([N+](=O)[O-])ccc1N1CCOCC1`, the “hERG current change (%, negative = inhibition) at 10uM” value is -71.4%.
Next, `N=c1c(S(=O)(=O)c2ccc(Cl)cc2)cc2c(=O)n3ccccc3nc2n1Cc1ccco1`: 13.1%; `O=C(Nc1cccnc1)OC1CCCCC1`: 0.581%; `Cc1ccc(S(=O)(=O)N2CCN(C(=O)c3ccc(N4CCCCC4)c([N+](=O)[O-])c3)CC2)cc1`: -10.2%.
The figure for `COc1cc(C#N)ccc1OCC(=O)c1ccc2c(c1)OCCO2` is -44.1%; for `CCc1ccc(-c2cc(C(=O)N/N=C/c3c[nH]c4ccccc34)[nH]n2)cc1` it is 5.65%; for `C/C(=N\NC(=O)c1ccc(O)cc1)c1cc2ccccc2o1` it is -50.3%.
Next, `COc1ccc(CNc2ncnc3ccccc23)cc1`: 21.7%.
As for `CCn1c2ccccc2c2cc(NC(=O)c3ccc([N+](=O)[O-])cc3)ccc21`, the “hERG current change (%, negative = inhibition) at 10uM” value is on record as 3.25%.
For the compound `CCCc1cc(NC(=O)COC(=O)c2nccnc2N)n(-c2ccccc2)n1`, the “hERG current change (%, negative = inhibition) at 10uM” value is -22.4%.
The figure for `O=C(CSc1nnc2nnc3ccccc3n12)N1CCOCC1` is 19.5%; for `Cc1ccc(Nc2nc(NCc3ccco3)c3ccccc3n2)cc1.Cl` it is 16.9%; for `O=C(Cn1nc(-c2ccccc2)c2ccccc2c1=O)NCCN1CCOCC1` it is 5.43%.
Next, `CCOc1cccc(CN2CCCC(C(=O)c3cccc(C(F)(F)F)c3)C2)c1O` (stereo not drawn): -67.9%; `CC(C)NC(=O)NC(=O)COC(=O)/C=C/c1ccc2c(c1)OCO2`: 5.94%; `Cc1ccccc1OCCNC(=O)c1ccc2ccccc2n1`: -20.8%.
Next, `Cc1cc(C)cc(NC(=O)CN2CCCN(S(=O)(=O)c3ccc(Br)s3)CC2)c1`: -6.01%.
Consider `CC(=O)NCC(=O)N(C)C(C(=O)Nc1ccc(C(C)C)cc1)c1ccccc1` (stereo not drawn), for which the “hERG current change (%, negative = inhibition) at 10uM” value is 2.34%.
Next, `O=C(C1=C(O)C(=O)N(Cc2ccco2)C1c1ccccc1F)c1cccs1` (stereo not drawn): 10.6%; `COC(=O)Cn1c(=NC(=O)CSC(C)=O)sc2ccccc21`: -12.2%.
Consider `CCOC(=O)CC(=O)CSc1nc2c(cc1C#N)CCC2`, for which the “hERG current change (%, negative = inhibition) at 10uM” value is on record as 14.5%.
The figure for `COC(=O)[C@H](CCSC)NC(=O)NC1CC1` is 23%.
The figure for `NC(=O)CSc1nnc(NC(=O)c2ccc3ccccc3c2)s1` is -6.24%; for `CC(=O)Nc1ccc(CN2CCc3c([nH]c4ccccc34)C2c2ccccn2)cc1` (stereo not drawn) it is -38.5%.
Next, `COC(=O)C1CCN(CCCOc2ccc(CN3CCN(c4ccc([N+](=O)[O-])cc4)CC3)cc2)CC1`: -74.3%; `COCC1CCN(Cc2cn(C)nc2-c2cccc(Cl)c2)C1` (stereo not drawn): -2.21%; `CC1=CC(C)(C)NC(=S)N1c1cccc(C)c1`: 4.62%.
Turning to `CCOC(=O)N1CCN(c2cc(N3CCOCC3)c(F)cc2[N+](=O)[O-])CC1`, the “hERG current change (%, negative = inhibition) at 10uM” value was -18.2%.
The figure for `CC(C)Oc1ccc(C(=O)Nc2ccc(S(=O)(=O)N3CCN(C)CC3)cc2)cc1` is 4.77%.
For the compound `Cc1cc(C)cc(Nc2cnn(C34CC5CC(CC(CC(=O)O)(C5)C3)C4)c(=O)c2Cl)c1`, the “hERG current change (%, negative = inhibition) at 10uM” value turned out to be 5.39%.
Next, `Cn1c(N)c(C(=O)CSc2nnc(-c3c[nH]c4ccccc34)n2C2CC2)c(=O)[nH]c1=O`: 5.81%; `Cn1c(CN2CCOCC2)nc2cc(NC(=O)c3ccccc3Cl)ccc21`: -10.4%; `CC1(C)Cc2nc(N3CCCC3)c(C#N)cc2CO1`: -6.01%.
Next, `COc1ccc(CSCC(=O)N/N=C/c2ccc(OCC(=O)N3CCCCC3)cc2)cc1`: 10.2%; `CCOC(=O)N1CCN(C(=O)CCn2nc(-c3ccc(Cl)cc3)ccc2=O)CC1`: -46.2%; `COC(=O)C1=NN(C(=O)c2cccc(Cl)c2)C(O)(C(C)(C)C)C1` (stereo not drawn): 8.11%.
The figure for `CN(Cc1nc2ccccc2c(=O)[nH]1)C(=O)c1ccc(NC(=O)CSc2nnnn2C)cc1` is 5.42%; for `Cc1ccc(OCCCCn2c(CO)nc3ccccc32)cc1` it is -14.6%; for `CN=C1S/C(=C\c2cccc(Cl)c2Cl)C(=O)N1C` it is -2.41%.
Take `O=C(c1ccccc1)N1CCOC12CCN(c1ncc(C(F)(F)F)cc1Cl)CC2`: the “hERG current change (%, negative = inhibition) at 10uM” value turned out to be 20.8%.
Next, `O=C1CCc2cc(S(=O)(=O)NCc3ccccc3Cl)cc3c2N1CC3`: -12.9%; `COc1ccccc1Nc1nc(-c2ccccc2)nc2ccccc12`: 23.5%.

Source of the values: article PMC4336329 (PLoS ONE, 2015).
